# Measured values published in PubChem BioAssay (Tox21).
# Values joined by “and” are separate entries in the source; they are usually repeats but may differ in a detail not shown here. Equal entries are not always repeated. This list was built around the results that the source calls inconclusive (neither active nor inactive); the mix of calls is not that of the screen. Potencies beside an inconclusive call are fits to weak or partial responses and may not hold up. Active and inactive are the calls of the source. Unless noted, the call rests on the fitted dose curve; in most records, active means well fitted curve in the direction sought with a large enough effect in the repeat runs; inconclusive means weak or mixed curves; inactive means no such curve, though single readings can be large; an effect the other way counts as inactive or inconclusive.
# Columns and labels:
# [1] = qHTS assay to identify small molecule antagonists of the progesterone receptor (PR) signaling pathway - cell viability counter screen (AID 1346798); further: nearly all actives have a fitted effect of over 50% in size
# Procedure, shortened: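 Luminescence readout (CellTiter-Glo, 30 min, RT) of viability in PR-UAS-bla HEK293T cells exposed to compound and R5020 agonist for 16 hr at 37C, 5% CO2; run in the same wells as the beta-lactamase reporter read.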
# [2] = qHTS assay to identify small molecule agonists of the progesterone receptor (PR) signaling pathway - cell viability counter screen (AID 1346799; calls by dose curve; further: nearly all actives have a fitted effect of over 45% in size)
# Procedure, shortened: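 HEK293T PR-UAS-bla, 3,000 cells/well, 2% charcoal-stripped FBS; 6 h settle, compound 16 h at 37C/5% CO2; LiveBLAzer 2 h RT, then CellTiter-Glo 30 min RT, luminescence read.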
# [3] = qHTS assay to identify small molecule antagonists of the TGF-beta/Smad signaling pathway (AID 1346924; active means well fitted inhibition curve with a large enough effect in the signal ratio in the repeat runs, not every such curve was filed as active; inconclusive means weak or mixed curves; the % refers to the signal ratio); details: SBE-bla HEK293T, TGF-beta/Smad reporter, beta-lactamase ratio; activity, negative = inhibition: at 76.8 µM (top of the series) unless noted
# Procedure, shortened: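 SBE-bla HEK 293T cells were plated overnight, then received compound in DMSO plus TGF-beta1 (added as a 0.25 ng/mL solution) and were incubated 5 h at 37 C. Beta-lactamase reporter activity was read after 2 h at room temperature with LiveBLAzer B/G FRET substrate (ex 405, em 460/530 nm).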
# [4] = Caspase-3/7 induction in CHO-K1 cells by small molecules, qHTS cell viability counter screen (AID 1346979); further: nearly all actives have a fitted effect of over 35% in size
# Procedure, shortened: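 CHO-K1 wt, 1,500 cells/well; 5hr pre-incubation 37C/5% CO2; compound pin transfer (DMSO); 16hr exposure; CellTiter-Fluor added, 1hr, fluorescence read.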
# [5] = Caspase-3/7 induction in HepG2 cells by small molecules, qHTS assay (AID 1346978); further: nearly all actives have a fitted effect of over 15% in size
# Procedure, shortened: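 Caspase-3/7 induction was measured by Caspase-Glo 3/7 luminescence (30 min, room temperature) after a 17 hr compound exposure of wild-type HepG2 cells seeded at 2,000 per well and pre-incubated 5 hr.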
# [6] = molecular target: Progesterone receptor (Homo sapiens) (UniProt P06401); assay: qHTS assay to identify small molecule antagonists of the progesterone receptor (PR) signaling pathway (AID 1346795; active means well fitted inhibition curve with a large enough effect in the signal ratio in the repeat runs, not every such curve was filed as active; inconclusive means weak or mixed curves; the % refers to the signal ratio; on activity change, negative = inhibition: on the % scale 0 is the no-effect control and ±100 the full control effect); details: PR-UAS-bla HEK293T, beta-lactamase FRET ratio, 16 h; activity change, negative = inhibition: at 92.4 µM (top of the series) unless noted
# Sequence of UniProt P06401 (P06401 whole entry, looked up): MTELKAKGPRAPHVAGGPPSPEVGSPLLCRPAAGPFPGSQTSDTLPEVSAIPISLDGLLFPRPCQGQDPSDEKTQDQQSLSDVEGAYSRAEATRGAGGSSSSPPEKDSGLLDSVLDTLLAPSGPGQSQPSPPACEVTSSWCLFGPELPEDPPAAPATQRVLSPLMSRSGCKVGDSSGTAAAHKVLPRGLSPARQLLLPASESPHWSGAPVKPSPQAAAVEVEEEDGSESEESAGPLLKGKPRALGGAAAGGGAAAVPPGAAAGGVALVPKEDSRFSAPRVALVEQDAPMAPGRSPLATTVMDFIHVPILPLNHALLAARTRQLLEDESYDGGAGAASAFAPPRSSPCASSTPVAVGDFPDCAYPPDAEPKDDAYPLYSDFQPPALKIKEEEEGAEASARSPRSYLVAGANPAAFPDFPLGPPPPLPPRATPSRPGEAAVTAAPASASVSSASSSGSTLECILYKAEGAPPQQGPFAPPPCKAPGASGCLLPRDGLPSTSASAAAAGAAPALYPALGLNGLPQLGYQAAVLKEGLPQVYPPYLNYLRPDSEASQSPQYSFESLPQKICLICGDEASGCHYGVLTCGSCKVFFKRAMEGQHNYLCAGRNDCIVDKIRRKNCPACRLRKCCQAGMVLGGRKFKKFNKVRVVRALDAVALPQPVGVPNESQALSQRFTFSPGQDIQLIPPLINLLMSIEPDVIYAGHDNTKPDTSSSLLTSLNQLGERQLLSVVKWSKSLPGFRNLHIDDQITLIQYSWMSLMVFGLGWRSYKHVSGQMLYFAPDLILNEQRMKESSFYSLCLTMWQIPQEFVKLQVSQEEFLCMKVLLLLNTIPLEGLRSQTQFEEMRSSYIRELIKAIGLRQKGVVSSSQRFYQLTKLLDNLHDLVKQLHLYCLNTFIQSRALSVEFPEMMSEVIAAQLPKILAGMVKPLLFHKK
# Procedure, shortened: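 Beta-lactamase reporter, HEK293T PR-UAS-bla line; 2% charcoal-stripped FBS; 6 hr pre-incubation, 37C/5% CO2. Compound + R5020 1 nM final, 16 hr. LiveBLAzer B/G FRET substrate, 2 hr RT; fluorescence intensity read.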
# [7] = Human pregnane X receptor (PXR) small molecule agonists, qHTS cell viability counter screen (AID 1346977); further: nearly all actives have a fitted effect of over 50% in size
# Procedure, shortened: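 Fluorescence read-out (CellTiter-Fluor) of viability in PXR-Luc HepG2 cells, multiplexed with the luciferase agonist read. Compounds in DMSO added after 5hr plating; 24hr total exposure at 37C, 5% CO2.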
# [8] = Caspase-3/7 induction in CHO-K1 cells by small molecules, qHTS assay (AID 1346980); further: nearly all actives have a fitted effect of over 15% in size
# Procedure, shortened: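 Luminescent Caspase-Glo 3/7 read (30min, room temperature) quantified apoptosis induction. Cells were wild-type CHO-K1, treated with compound for 17hr at 37 C and 5% CO2.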
# [9] = qHTS assay to identify small molecule agonists of the TGF-beta/Smad signaling pathway (AID 1346859; active means well fitted activation curve with a large enough effect in the signal ratio in the repeat runs, not every such curve was filed as active; inconclusive means weak or mixed curves; the % refers to the signal ratio; on activation: on the % scale 0 is the no-effect control and ±100 the full control effect); details: SBE-bla HEK293T, TGF-beta/Smad beta-lactamase reporter, 5 h; activation: at 76.8 µM (top of the series)
# Procedure, shortened: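 Read-out: fluorescence at 460 and 530 nm (405 nm excitation) after a 2 hr room-temperature incubation with beta-lactamase FRET substrate. SBE-bla HEK 293T cells had been treated with test compounds for 5 hr at 37 C.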
# [10] = qHTS assay to identify small molecule antagonists of the TGF-beta/Smad signaling pathway - cell viability counter screen (AID 1346824); further: nearly all actives have a fitted effect of over 50% in size
# Procedure, shortened: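 Cytotoxicity counter-screen run in the same wells as the beta-lactamase Smad reporter read: CellTiter-Glo luminescence after 30 min at room temperature. HEK 293T SBE-bla cells had 5 hr compound exposure at 37 C with TGF-beta1 (0.25 ng/mL stock).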
# [11] = qHTS assay to identify small molecule agonists of the TGF-beta/Smad signaling pathway - cell viability counter screen (AID 1346829); further: nearly all actives have a fitted effect of over 45% in size
# Procedure, shortened: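 SBE-bla HEK 293T cells plated overnight, compound exposure 5 hr at 37 C. Viability read in the same wells by CellTiter-Glo luminescence after 30 min at room temperature, following the beta-lactamase read.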
# Potency means the concentration at half of the fitted maximal effect; tags describe the fitted curve by direction and shape or compound fluorescence and quenching.
smiles,measurement,setting,value
CCCCCCCCCCCOC(=O)c1ccccc1C(=O)OCCCCCCCCCCC,Potency,[1],"inconclusive: 38.6 µM [cytotoxic, partial curve]"
same,Potency,[2],"inactive and inconclusive: 17.2 µM [cytotoxic, full curve]"
same,"activity, negative = inhibition",[3],inconclusive: 3.26% [at 35.3 µM]
same,Potency,[4],"inconclusive: 29.9 µM [cytotoxic, single point] and inactive"
O=c1nc(O)n(Cl)c(=O)n1Cl,Potency,[2],"inconclusive: 68.3 µM [rising, partial curve, poor fit]"
CNC(=O)CSP(=O)(OC)OC,Potency,[2],"inconclusive: 0.193 µM [cytotoxic, full curve, poor fit]"
same,Potency,[4],"inconclusive: 30.6 µM [rising, partial curve, poor fit]"
Cc1cc(Cl)ccc1OC(C)C(=O)O (configuration not stated),"activity, negative = inhibition",[3],inconclusive: -4.51%
C=CC(N)=O,Potency,[5],"inconclusive: 17.3 µM [activator, partial curve]"
COP(=O)(OC)OC=C(Cl)Cl,Potency,[2],"inconclusive: 2.76 µM [cytotoxic, single point]"
same,"activity, negative = inhibition",[3],inconclusive: -14.6% [at 35.3 µM]
O=C(N[C@H]1N=C(c2ccccc2F)c2cccc3c2N(CC3)C1=O)c1cc2ccccc2[nH]1,Potency,[2],inactive
CN1C(=O)[C@@H](NC(=O)c2cc3ccccc3[nH]2)N=C(c2ccccc2)c2ccccc21,Potency,[6],inactive
same,Potency,[7],inactive
same,Potency,[8],"inconclusive: 23.7 µM [activator, partial curve]"
CCOP(=S)(OCC)SCSCC,"activity change, negative = inhibition",[6],inconclusive: -36.6%
same,Potency,[7],inactive
CCC(C)(C#N)N=NC(C)(C#N)CC (configuration not stated),Potency,[9],inactive
N#CCCSCCC#N,Potency,[2],"inconclusive: 68.7 µM [cytotoxic, single point]"
same,Potency,[4],inactive
Clc1ccc(C(Cl)(Cl)Cl)cc1Cl,Potency,[4],"inconclusive: 59.8 µM [cytotoxic, single point]"
Clc1ccc(C(Cl)(Cl)Cl)cn1,Potency,[2],"inconclusive: 61.1 µM [cytotoxic, partial curve]"
same,Potency,[4],"inconclusive: 61.1 µM [rising, partial curve, poor fit]"
Brc1ccc(Oc2cc(Br)c(Br)cc2Br)c(Br)c1,Potency,[1],"inconclusive: 54.5 µM [cytotoxic, single point]"
same,Potency,[2],active: 38.6 µM and active: 43.6 µM
same,Potency,[10],"inconclusive: 9.84 µM [cytotoxic, partial curve, poor fit]"
same,Potency,[11],"inconclusive: 43.6 µM [cytotoxic, partial curve, poor fit]"
same,"activity, negative = inhibition",[3],inconclusive: -32.9%
same,Potency,[4],"inconclusive: 77 µM [cytotoxic, single point] and inconclusive: 77.5 µM [cytotoxic, single point]"
O=C(NC(=O)c1c(F)cccc1F)Nc1cc(Cl)c(OC(F)(F)C(F)F)c(Cl)c1,Potency,[2],"inconclusive: 48.6 µM [cytotoxic, partial curve]"
same,Potency,[9],inactive
CC1(C)C(C=C(Cl)Cl)C1C(=O)OC(C#N)c1cccc(Oc2ccccc2)c1 (configuration not stated),Potency,[2],"inconclusive: 33.5 µM [rising, single point]"
CCC(C)(C)C(=O)OC1=C(c2ccc(Cl)cc2Cl)C(=O)OC12CCCCC2,Potency,[11],"inconclusive: 24.5 µM [rising, partial curve, poor fit]"
same,Potency,[9],inactive
same,"activity, negative = inhibition",[3],inconclusive: 6.55%
CNC(C)Cc1ccc2c(c1)OCO2 (configuration not stated),Potency,[6],active: 75.1 µM
same,Potency,[7],"inconclusive: 84.3 µM [cytotoxic, single point]"
N#Cc1cccc(C#N)c1,Potency,[6],inactive
same,Potency,[7],inactive
O=C(O)c1cc(I)cc(I)c1I,Potency,[9],inactive
same,"activity, negative = inhibition",[3],inconclusive: 1.16%
CC(C)OC(=O)C(O)(c1ccc(Cl)cc1)c1ccc(Cl)cc1,Potency,[2],"inconclusive: 77 µM [cytotoxic, single point]"
same,"activity, negative = inhibition",[3],inconclusive: -11.9%
same,Potency,[7],"inconclusive: 68.6 µM [cytotoxic, single point]"
same,Potency,[4],"inconclusive: 68.6 µM [cytotoxic, single point]"
same,Potency,[8],"inconclusive: 68.6 µM [activator, partial curve, poor fit]"
CNC(=O)Oc1ccccc1C1OCCO1,Potency,[2],"inconclusive: 48.3 µM [cytotoxic, partial curve]"
CCC(C)c1ccc(O)cc1 (configuration not stated),Potency,[7],inactive
CC(C)(C#N)C(C)(C)C#N,Potency,[4],"inconclusive: 15.5 µM [cytotoxic, single point]"
C=COC(C)=O,Potency,[2],inactive
same,Potency,[4],inactive
CSCCCN=C=S,Potency,[6],inactive
same,Potency,[7],inactive
CCCC[P+](CC)(CCCC)CCCC (tested in a mixture with another compound),Potency,[7],inactive
O=S(=O)(O)C(F)(F)C(F)(F)C(F)(F)C(F)(F)C(F)(F)C(F)(F)F,Potency,[2],"inconclusive: 2.43 µM [rising, full curve, poor fit]"
CC(C)=CC1C(C(=O)OC(C#N)c2cccc(Oc3ccccc3)c2)C1(C)C (configuration not stated),Potency,[6],"inconclusive: 43.3 µM [falling, partial curve]"
same,Potency,[5],inactive
same,Potency,[4],"inconclusive: 38.6 µM [rising, partial curve, poor fit]"
CCN(C(C)=O)c1cccc(-c2ccnc3c(C#N)cnn23)c1,Potency,[2],inactive
CC(C)[C@@H](C(=O)O[C@@H](C#N)c1cccc(Oc2ccccc2)c1)c1ccc(Cl)cc1,Potency,[1],"inconclusive: 8.76 µM [rising, full curve]"
same,Potency,[2],"inconclusive: 4.92 µM [rising, full curve] and inconclusive: 15.4 µM [rising, full curve]"
same,Potency,[3],"inconclusive: 55.8 µM [cytotoxic, single point]"
same,Potency,[4],"inconclusive: 61.1 µM [cytotoxic, single point]"
COP(=S)(OC)Oc1ccc([N+](=O)[O-])cc1Cl,Potency,[1],"inconclusive: 68.6 µM [rising, single point]"
same,Potency,[7],active: 34.4 µM
Cc1cc(OC(=O)N(C)C)nn1C(=O)N(C)C,Potency,[9],inactive
same,Potency,[5],inactive
c1ccc2c(c1)-c1cccc3cccc-2c13,Potency,[2],"inactive and inconclusive: 54.5 µM [cytotoxic, partial curve, poor fit]"
same,Potency,[11],inactive
CC1(C)[C@H](C(=O)O[C@H](C#N)c2cccc(Oc3ccccc3)c2)[C@@H]1C=C(Br)Br,Potency,[1],inactive
same,Potency,[10],"inconclusive: 19.5 µM [cytotoxic, partial curve]"
same,Potency,[9],inactive
same,"activity, negative = inhibition",[3],inconclusive: -13.8%
same,Potency,[4],"inconclusive: 80.1 µM [cytotoxic, single point]"
COc1cccc(C(=O)CCN[C@@H](C)[C@H](O)c2ccccc2)c1,Potency,[1],"inconclusive: 1.19 µM [cytotoxic, single point]"
same,Potency,[2],"inconclusive: 7.5 µM [cytotoxic, single point]"
same,"activity, negative = inhibition",[3],inconclusive: 0.712% [at 35.3 µM]
CCOC(=O)C(C)OC(=O)c1cc(Oc2ccc(C(F)(F)F)cc2Cl)ccc1[N+](=O)[O-] (configuration not stated),Potency,[2],"inconclusive: 34.2 µM [rising, partial curve] and inconclusive: 54.5 µM [rising, partial curve]"
same,Potency,[9],"inconclusive: 138 µM [rising, partial curve, poor fit]"
same,"activity, negative = inhibition",[3],inconclusive: -8.5%
same,Potency,[7],"inconclusive: 70.8 µM [cytotoxic, partial curve, poor fit]"
same,Potency,[4],"inconclusive: 68.2 µM [cytotoxic, single point] and inconclusive: 68.6 µM [cytotoxic, single point]"
